Where “and” joins values, the source holds several entries; their conditions need not be identical. Equal entries are not always repeated. Screen size: about 150,000 compounds; about 6,500 (4.3%) were called active. Inconclusive results, whose numbers are uncertain, are shown with a selection of clear calls. Calls come from the whole dose curve; as a rule, active = well fitted inhibition curve with a large enough effect (not every such curve was filed as active); inconclusive = small, poorly fitted or top-dose-only effect, or another doubt; inactive = no such curve, though single readings can be large or run the other way. Potencies of inconclusive entries are doubtful fits and often do not repeat.
Each compound was assayed against 15-hydroxyprostaglandin dehydrogenase [NAD(+)] (Homo sapiens) (UniProt P15428) (assay: qHTS Assay for Inhibitors of HPGD (15-Hydroxyprostaglandin Dehydrogenase)). Details: purified HPGD, NADH fluorescence kinetic, PGE2 substrate; activity change, negative = inhibition: active compounds read low.
Sequence of UniProt P15428 (P15428 whole entry, looked up): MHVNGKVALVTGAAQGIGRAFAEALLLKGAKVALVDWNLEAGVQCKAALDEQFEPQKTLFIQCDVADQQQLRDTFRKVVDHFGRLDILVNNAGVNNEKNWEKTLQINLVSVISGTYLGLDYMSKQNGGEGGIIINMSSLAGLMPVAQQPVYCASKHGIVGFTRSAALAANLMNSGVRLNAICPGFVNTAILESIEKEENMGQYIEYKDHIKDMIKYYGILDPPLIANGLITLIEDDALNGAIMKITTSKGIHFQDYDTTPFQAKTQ
In short: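 20 nM HPGD preincubated 15 min at room temperature with compound in 50 mM Tris-HCl pH 8, 0.01% Tween 20. Started with 1 mM NAD+ and 30 uM prostaglandin E2; NADH fluorescence (360/450 nm) read 5 times over 30-s intervals, last minus first.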
% is set by controls: 0 for no effect and ±100 for the full control effect; potency is the fitted concentration of half-maximal effect; tags give direction and shape of the fitted curve.

Potency, active:
Nc1ccc(O)c(C(=O)O)c1 11.2 µM
Cc1cc(OC(=O)c2c(C)cc(O)cc2O)cc(O)c1C(=O)O 3.98 µM and 15.8 µM
COCCNC(=O)C1CCC(Cn2c(=S)[nH]c3ccccc3c2=O)CC1 (stereo unspecified) 1.78 µM
Cc1ccc(Cn2nnc3c(=O)[nH]c(C4CCN(S(=O)(=O)c5cc(C)ccc5C)CC4)nc32)cc1 22.4 µM
COc1cc(C(=O)Nc2nnc(C(C)(C)C)s2)c([N+](=O)[O-])cc1OC 20 µM
CSc1ccc(C(=S)N2CCN(CCO)CC2)cc1 25.1 µM
COc1ccc(-n2c(C)nc3cc(C(=O)N4CCOCC4)ccc32)cc1 2.24 µM

Potency, inconclusive:
CCCC(=O)Nc1ccc(Br)c(Cl)c1 28.2 µM [inhibitor, single point]
CCOc1ccc2c(C)c(C(=O)O)oc2c1OCC 31.6 µM [inhibitor, partial curve]
Cc1nc(S/C(=C\c2ccc(OCc3ccccc3Cl)cc2)C(=O)O)n[nH]1 3.55 µM [inhibitor, full curve]
Cc1nc(NC2CCCCC2)c2nc(-c3ccccc3)n(CCCN(C)C)c2n1 28.2 µM [inhibitor, partial curve]
CCNC(=O)NC(=O)C(C)OC(=O)c1oc2ccc(OC)cc2c1C (stereo unspecified) 28.2 µM [inhibitor, partial curve]
O=C(CSc1ccccc1)Nc1ccc(-c2nc3ccccc3[nH]2)cc1 22.4 µM [inhibitor, partial curve]
CC(C(=O)NCC1CCCO1)N(C(=O)c1snc(C(N)=O)c1N)c1cccc(F)c1 (stereo unspecified) 28.2 µM [inhibitor, partial curve]
Cc1ccc(NC(=O)c2cc(S(=O)(=O)N3CCCCC3)ccc2N2CCOCC2)cc1F 28.2 µM [inhibitor, partial curve]
O=C(c1ccncc1)N1CCC2(CC1)CN(c1cccc(-c3ccccc3)c1)C2 28.2 µM [inhibitor, partial curve]
CCOC(=O)c1c(NC(=O)c2cccs2)sc(CC)c1-c1cccs1 28.2 µM [inhibitor, partial curve]
O=C(Nc1cccnc1)c1sc(Nc2ccccc2)nc1-c1ccccc1 31.6 µM [inhibitor, single point]
Cc1ccc(C(=O)/C=C/c2cn(CN3CCN(C)CC3)c3ccccc23)cc1 35.5 µM [inhibitor, partial curve]
COC(=O)/C=c1/sc2n(c1=O)CCN=2 28.2 µM [inhibitor, partial curve, poor fit]
Clc1ccc2noc(-c3ccccc3)c2c1 20 µM [inhibitor, partial curve]
Cc1ccccc1NC(=O)Cn1c(C)nc2ccc(N)cc2c1=O 28.2 µM [inhibitor, partial curve]
Cc1nn(CC(=O)NCc2cccc3ccccc23)c(=O)c2ccccc12 31.6 µM [inhibitor, partial curve]
Cc1nnsc1-c1nc2ccccc2[nH]1 31.6 µM [inhibitor, partial curve]
COc1ccc2nc(NC(=O)c3cccc(-c4cc5ccccc5oc4=O)c3)sc2c1 28.2 µM [inhibitor, single point]
CC(Sc1ccc(Cl)cc1)C(=O)NCC1CCCO1 (stereo unspecified) 28.2 µM [inhibitor, partial curve]
c1ccc2cc3[nH]c(CN4CCCCC4)nc3cc2c1 22.4 µM [inhibitor, partial curve]
COC(=O)c1cccc(Nc2cc(C)nc(-c3ccccc3O)n2)c1 35.5 µM [inhibitor, partial curve]
Cn1c(C(=O)Nc2ccc3c(c2)OCO3)cc2c(=O)n(C)c3ccccc3c21 35.5 µM [inhibitor, partial curve]
COc1ccc(NC2=Nc3ccccc3N3C2=Nc2c(c(C)nn2-c2ccc(C)cc2)C3c2cccnc2)cc1 (stereo unspecified) 17.8 µM [inhibitor, partial curve]
CC(C)Cc1nc(Nc2ccc(S(=O)(=O)N3CCCC3)cc2)c2nnn(Cc3ccccc3)c2n1 35.5 µM [inhibitor, partial curve]
CCc1cccc2c(C(=O)COC(=O)c3nn(C)c(=O)c4ccccc34)c[nH]c12 22.4 µM [inhibitor, partial curve]

Activity change, negative = inhibition, inactive:
CCN(CC)c1ccc2cc(C(=O)Nc3ccc(-n4cnnn4)c(OC)c3)c(=O)oc2c1 -11.6%
Cc1c(NC(=O)c2ccco2)cccc1-c1nc2cccnc2s1 -25.1%
CCC(C)(C)n1nnnc1C(c1cccnc1)N1CCCc2ccccc21 (stereo unspecified) -3.8%
CCOC(=O)c1c(C)c(C(=O)N(C)C2CCCCC2)c(C)n1C -18.1%
Cc1cccc(C)c1NC(=S)N/N=C/c1ccc(OCCC(C)C)cc1 -8.55%
O=C1c2oc3ccccc3c(=O)c2C(c2cccc(F)c2)N1CCCO (stereo unspecified) 1.42%
CC(Nc1cccc2ccccc12)C(=O)N/N=C/c1ccc([N+](=O)[O-])cc1 (stereo unspecified) -21.8%
CN1C(=O)c2ccc(N3CCCC3)cc2C1=O -29.7%
CCc1ccc(C(=O)Cn2ncc(Cl)c(Cl)c2=O)cc1 -1.61%
Cc1ccc(SCc2c(-c3ccccc3)nn(C)c2Cl)cc1 -8.22%
CCOc1ccc(C(=S)N2CCOCC2)cc1 -12.5%
CN(C)c1cccc(C(=O)OCC(=O)NCc2ccco2)c1 -22.2%
CCC(=O)N=c1n(C)c2ccccc2n1CCOc1ccccc1 -6.67%
Cc1cc(C)c(NC(=S)NC(=O)c2ccc(-c3ccccc3)cc2)c(C)c1 -7.71%

Reference: PubChem BioAssay AID894 (National Center for Advancing Translational Sciences (NCATS), 2007)
